# Source: the supplement of paper PMC3724861
# Some of the results follow.
# Test system: T1, Caupolican (Caup) homeodomain DNA-binding domain
# T1 sequence: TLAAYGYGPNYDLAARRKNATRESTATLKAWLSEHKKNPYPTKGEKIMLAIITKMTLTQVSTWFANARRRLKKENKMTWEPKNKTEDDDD
# Test: PBM E-score (8-mer, recovered from the published 9-mer minima) (E-score (dimensionless, -0.5 to 0.5)); Drosophila protein; higher = stronger relative binding preference, active = 0.31 or more
# How it was run: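 Caup's homeodomain DNA-binding domain (residues 214-303) was produced by in vitro transcription and translation and applied at 100 nM to custom-designed protein binding microarrays. Each value is an enrichment score giving relative binding preference for a short DNA word; higher means stronger. Published 9-mer scores were the minimum of their two constituent 8-mer scores, and the 8-mer values were recovered from those minima. A cutoff of 0.31 marks candidate binding sequences.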
row,Sequence,PBM E-score
1,CTTACCAA,inactive: 0.0972
2,TGTCACAA,inactive: 0.303
3,GACGCTAC,inactive: -0.00575
4,ACGGAAAG,inactive: -0.0385
5,GATGCTGA,inactive: -0.0674
6,ACGACCCC,inactive: -0.273
7,CTACTAGC,inactive: 0.0844
8,GGCCCCCA,inactive: -0.338
9,CTCAGCGC,inactive: -0.145
10,GACTTACC,inactive: -0.0473
11,AACAATTG,inactive: 0.126
12,GGGGGGTA,inactive: -0.28
13,ACTCAAAC,inactive: 0.114
14,CAGATGAC,inactive: 0.00101
15,AACGGCAT,≥ 0.077
16,ACAACAGT,inactive: 0.205
17,AATCTCGG,inactive: -0.0518
18,ATCCGCGC,inactive: -0.102
19,TCCGCAGA,inactive: -0.0726
20,AAACCTGG,inactive: 0.0158
21,CACGAGCA,inactive: 0.0519
22,CGTGAGAC,inactive: -0.0591
23,GATCAACA,inactive: 0.214

row,Sequence,PBM E-score
1,AGCCCCGG,inactive: -0.248
2,GGCCTCAA,inactive: -0.145
3,CCCGCGGC,inactive: -0.226
4,AAATCACG,inactive: 0.0601
5,CCCTCAGC,inactive: -0.214
6,ATGTTACG,active: 0.326
7,ACTCGCAA,≥ 0.0477
8,CAGCCTCC,inactive: -0.292
9,AGAGGAAG,inactive: -0.148
10,GGGCGCGA,inactive: -0.267
11,CTCCAAGC,inactive: -0.157
12,CATACATG,active: 0.44
13,AAGTCTTG,inactive: 0.12
14,CGGGGCTA,inactive: -0.177
15,CTTTACTC,inactive: -0.0119
16,ACGCCCGG,inactive: -0.241
17,GGGTTTTA,inactive: -0.0316
18,CACCCTCA,inactive: -0.135
19,ATAAAGTA,inactive: 0.163
20,AAAAGCTA,inactive: -0.0372
21,TCCTTAAA,inactive: 0.031
22,CTGCTCCC,inactive: -0.108
23,AGTACCCA,inactive: 0.0315

row,Sequence,PBM E-score
1,TGTGCGAA,inactive: -0.0814
2,AACATCTT,inactive: 0.246
3,AGCATCGA,inactive: -0.0143
4,AGGATAAT,inactive: 0.053
5,ACCAGGCG,inactive: -0.164
6,GAAGTCTA,inactive: -0.0315
7,ATGCAAGA,inactive: 0.0828
8,TCCCACAA,inactive: -0.0657
9,CGGTAGTC,inactive: -0.108
10,GCAATGAC,inactive: 0.0198
11,AAAACATT,inactive: 0.252
12,CCATTAAG,inactive: -0.0422
13,CGTCGAGA,inactive: -0.0457
14,AATAACTA,inactive: 0.192
15,GACGTGGC,inactive: -0.109
16,CGGAGTAA,inactive: -0.0184
17,AGAAATAT,inactive: 0.134
18,CGGGACTC,inactive: -0.204
19,ATCCCTGG,inactive: -0.0903
20,ATTAAAAT,inactive: 0.127
21,TAATAAGA,inactive: 0.13
22,CTTATTCA,inactive: 0.051
23,AATTGGAT,inactive: 0.0994

row,Sequence,PBM E-score
1,CAACTCCA,inactive: -0.0718
2,AACATCGC,inactive: 0.201
3,GCTTTGGA,inactive: 0.0316
4,ACGTCGCG,inactive: -0.04
5,GTCATAAA,inactive: 0.164
6,GACGATCA,inactive: -0.00416
7,CAAGTAGG,inactive: -0.00819
8,GACCTCTA,inactive: -0.142
9,AAACACGC,inactive: 0.248
10,ATAGTTTC,inactive: 0.00403
11,ACTAGATA,inactive: 0.114
12,CAATGTGG,inactive: 0.0734
13,CAGTACGC,inactive: -0.00729
14,CTGACTCA,inactive: -0.0032
15,CTGAAGCC,inactive: -0.145
16,CCTTTACG,inactive: 0.00316
17,AATGGAAT,inactive: 0.128
18,GATGTCTA,inactive: 0.23
19,CCTAGGAA,inactive: -0.0215
20,ATAAAGTG,inactive: 0.166
21,ACCTTCAT,inactive: -0.0549
22,GGCCATCA,inactive: -0.0779
23,ACGCTAAA,inactive: 0.0305

row,Sequence,PBM E-score
1,GATCTGAA,inactive: -0.0249
2,CAGTCGAA,inactive: -0.00079
3,AAGTTATT,inactive: 0.145
4,ATTTTGTC,inactive: 0.189
5,GGCGAGAC,inactive: -0.158
6,ATCCATCA,≥ 0.0954
7,GGTCAGAC,inactive: -0.0993
8,GCCTCTAA,inactive: -0.115
9,CGATAACC,inactive: 0.0347
10,CCTTTCCA,inactive: -0.0963
11,CTTATCCC,inactive: -0.0209
12,CGTCGGGC,inactive: -0.238
13,GAACTAAC,inactive: -0.0656
14,AATACTCC,inactive: 0.0605
15,CAGTGCCC,inactive: -0.151
16,AACTGGAT,inactive: 0.0596
17,AATCTATC,inactive: 0.122
18,ACTGAGGC,inactive: -0.11
19,GAAGCGTA,inactive: -0.0769
